From article PMC6522524 (Nature Communications, 2019)

Tested on: HBV in HepG2.2.15 cells
Experiment: microbe, parasite or virus in culture
Assay type: cell-based, Hepatitis B virus

Compound	Relative intracellular HBV DNA level (Folds), AVERAGE (HepG2.2.15 (figure 4e), 10 μM, 6 days) [Folds]	IC50 (Hepatitis B virus, HepG2.2.15, 144 h, HepG2.2.15, 6 days, read-out: IC50, intracellular HBV DNA) [µM]
C=C1[C@H](CO)[C@@H](O)C[C@@H]1n1cnc2c(=O)[nH]c(N)nc21 [ETV, entecavir]	0.03445	
Cc1cc(C2CCCCC2)n(O)c(=O)c1 [Ciclopirox, 6-cyclohexyl-1-hydroxy-4-methyl-2(1 H)-pyridone]		0.8 ± 0.1
